PubChem BioAssay AID602332 (National Center for Advancing Translational Sciences (NCATS), 2012)
“And” between values parts separate entries of the source, which are not always exact repeats. Equal entries are not always repeated. Screen size: about 420,000 compounds; about 75 (0.02%) were called active. The shares of active, inactive and inconclusive entries below differ from those in the screen. Calls follow the shape of the dose curve; as a rule, active = well fitted activation curve with a large enough effect; inconclusive = small, poorly fitted or top-dose-only effect; inactive = no such curve, though single readings can be large or run the other way. A potency beside an inconclusive call is a rough fit, not a confirmed value.

Assay: qHTS for Inducers of the Endoplasmic Reticulum Stress Response (ERSR) in Human Glioma: qHTS; also: nearly all actives have a fitted effect of over 35% in size; as to activation: % of control where 0% means no effect
Details: U87-MG GRP78 promoter luciferase reporter, 16 h; activation: hits give high values
In short: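 Stably transfected U87-MG glioma cells carrying a GRP78-based luciferase sensor; 16 h compound incubation. Luminescence end-point read 10 min after Bright-Glo addition at room temperature.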
Potency is read from the fitted curve at half-maximal effect; tags tell the direction and shape of the fitted curve.

Structure (SMILES)	Potency	activation
S=c1nc2ccccc2c2nc(-c3ccccc3Cl)[nH]n12	inconclusive: 50.1 µM [activator, single point]	
COc1ccc(CNC(=O)c2cc(-c3cc(C)ccc3O)n[nH]2)cc1	inconclusive: 11.2 µM [activator, single point]	
CN1CCN(Cc2c(O)ccc3occ(C(=O)c4ccccc4)c23)CC1		inactive: 0.63%
COc1ccc(OCc2n[nH]c(=S)n2-c2ccc(C)cc2)cc1		inactive: -2.92%
NNCCc1ccccc1	inconclusive: 12.6 µM [activator, single point]	
O=C(NCC1CCCO1)c1c(O)c2cccc3c2n(c1=O)CCC3 (stereo unspecified)		inactive: 1.35%
Nc1c(C(=O)N2CCCC2)sc2nc(-c3ccccc3)ccc12	inconclusive: 3.98 µM [activator, partial curve, poor fit]	
O=C(Nc1ccc(Br)cc1)c1cc(-c2ccncc2)nc2ccccc12	inconclusive: 39.8 µM [activator, partial curve, poor fit]	
O=[N+]([O-])/C=C\c1ccc(N2CCCC2)c(F)c1		inactive: -12.2%
CCCOc1ccc(C(=O)NNC(=S)NC(=O)c2cccs2)cc1	inconclusive: 11.2 µM [activator, full curve]	
Cc1ccc(Nc2cc(C)c3c(O)cccc3n2)cc1C	inconclusive: 14.1 µM [activator, single point]	
CCn1c(/C(C#N)=C/c2ccccc2Cl)nc2ccccc21	inconclusive: 44.7 µM [activator, partial curve, poor fit]	
COC(=O)c1ccc(C2NC(c3ccc4c(c3)OCO4)=CC(c3ccccc3O)N2)cc1 (stereo unspecified)	inconclusive: 50.1 µM [activator, partial curve, poor fit]	
O=C(Nc1c2c(nn1-c1ccc(F)cc1)CS(=O)(=O)C2)C1CCCC1		inactive: 0.791%
Cc1c([N+](=O)[O-])c(C(=O)Nc2ccc3c(c2)OCCO3)nn1C		inactive: 1.34%
Cc1ccc2c(c1)c(=O)c1c3n2CCN(C(=O)CCl)C3CC1 (stereo unspecified)		inactive: -3.74%
CCN(CC)S(=O)(=O)c1ccc(N2CCCC2)c(NC(=O)c2ccc([N+](=O)[O-])o2)c1	inconclusive: 28.2 µM [activator, single point]	
Cc1ccc(C(=O)C=CNNC(=O)c2ccccc2)cc1	inconclusive: 12.6 µM [activator, single point]	
S=c1nc(-c2ccc(Cl)cc2)[nH][nH]1	inconclusive: 50.1 µM [activator, single point]	
Cc1ccc(S(=O)(=O)Nc2cccc3ncccc23)s1	inconclusive: 56.2 µM [activator, partial curve, poor fit]	
COc1ccc(/C=N/NC(=O)CCC(=O)Nc2ccc(Br)cc2)c(OC)c1	inconclusive: 50.1 µM [activator, single point]	
CCOC(=O)CC[C@H](NC(=O)Cn1cnc2c(OCc3ccccc3)ncnc21)C(=O)OCC	inconclusive: 50.1 µM [activator, single point]	

Structure (SMILES)	Potency	activation
O=C(Nc1cccc2nsnc12)c1cccs1	inconclusive: 3.55 µM [activator, single point]	
O=C1C=C(c2ccc(-c3ccccc3)cc2)C[C@@H](c2ccc(Cl)cc2)C1		inactive: -4.03%
Cc1ccc(C(=O)NC2CCCCCCC2)c(Cl)c1		inactive: -10.1%
COc1ccc(C=CC(=O)c2ccc(OC)c(OC)c2)cc1O	inconclusive: 50.1 µM [activator, single point]	
Nc1ccc(-n2cnc3cc([N+](=O)[O-])ccc32)cc1	inconclusive: 28.2 µM [activator, single point]	
COc1ccc(CCCNC(=O)C2CCC(=O)N(CC3CCCCC3)C2)cc1 (stereo unspecified)		inactive: -5.51%
COc1ccc(C(=O)Nc2ccc(-c3ccc(C)o3)cc2)cc1S(=O)(=O)N1CCOCC1		inactive: 1.89%
O=C(NC1=NCCS1)c1cccs1	inconclusive: 50.1 µM [activator, single point]	
COc1ccc(NC(=O)CSc2oc(-c3cccs3)nc2S(=O)(=O)c2ccc(C)cc2)c(OC)c1		inactive: -2.87%
CCNC(=S)Nc1cccc(S(=O)(=O)Nc2ccccc2OC)c1		inactive: -8.46%
COc1cc(C(=O)NC(=S)Nc2ccccc2[N+](=O)[O-])cc(OC)c1OC	inconclusive: 28.2 µM [activator, single point]	
O=C(NCc1ccc(F)cc1)c1ccc(Nc2nc3ccccc3n3nnnc23)cc1		inactive: -0.524%
COc1ccccc1C=Cc1ccnc2ccccc12	inconclusive: 14.1 µM [activator, single point]	
Oc1ccc(/C=N/NC(=S)N2CCOCC2)cc1	inconclusive: 12.6 µM [activator, full curve, poor fit]	
C=C1Cc2c(Cl)cc3[nH]c4c5c3c2[C@@]2(O)[C@@H]1C[C@@H]2C(C)(C)O[C@H]5[C@@H]1CC[C@@]2(O)[C@@]35O[C@@H]3[C@@H](O)[C@@H](C(=O)O)O[C@H]5CC[C@]2(C)[C@@]41C	inconclusive: 39.8 µM [activator, partial curve, poor fit]	
Cc1ccc(C)n1-c1nnc(N2CCCC(C(=O)NCc3cccc(Br)c3)C2)s1 (stereo unspecified)		inactive: -1.82%
COc1ccc(CNC(=O)c2cc3ccccc3oc2=O)cc1	inconclusive: 39.8 µM [activator, partial curve, poor fit]	
CCc1ccc(Sc2cc(C(=O)NCCCN3CCC(C)CC3)c3ccccc3n2)cc1		inactive: -7%
O=C(N/N=C(\c1ccccc1)c1ccccn1)c1ccccc1Cl	inconclusive: 50.1 µM [activator, single point]	
COc1ccc(COC(=O)C2=C(C)NC(=O)NC2c2cc(Br)c(O)c(OC)c2)cc1 (stereo unspecified)	inconclusive: 28.2 µM [activator, single point]	
O=C(Nc1cccc(C(=O)O)c1)/C(=C\c1ccccc1)NC(=O)c1cccc2ccccc12	inconclusive: 50.1 µM [activator, single point]	
CCCn1c(SCC(=O)c2ccc3c(c2)OCCO3)nnc1C(C)C	inconclusive: 44.7 µM [activator, partial curve, poor fit]	

Structure (SMILES)	Potency	activation
Nc1ccc(C(=O)Nc2ccccc2N)cc1	inconclusive: 14.1 µM [activator, full curve, poor fit] and inconclusive: 10 µM [activator, full curve, poor fit]	
Cc1cc(NC(=O)CSc2nc3ccccc3c(=O)n2CCCC(=O)NCc2ccco2)n[nH]1	inconclusive: 28.2 µM [activator, single point]	
O=c1cc(O)nc(SCc2ccccc2)n1-c1ccc(Cl)cc1		inactive: 2.1%
FC(F)Sc1ccc(NC(=S)N2CCN(c3ccccn3)CC2)cc1		inactive: -3.71%
O=C1CN(C(=O)CSc2nc3ccccc3c(=O)n2Cc2ccc(F)cc2)c2ccccc2N1		inactive: -5.7%
Cc1ccc(S(=O)(=O)/N=C2/NC(=O)/C(=C/c3ccccc3)S2)cc1		inactive: 9.24%
Cc1ccc(NC(=O)CSCC(=O)Nc2cccc(S(=O)(=O)N3CCCCCC3)c2)cc1		inactive: -1.59%
COc1cc(/C=C2/C(=N)N3N=C(CC(=O)N4CCOCC4)SC3=NC2=O)ccc1OC(C)c1ccccc1 (stereo unspecified)	inconclusive: 22.4 µM [activator, single point]	
C=C1CC2C3C=C(C)C4=CC(=O)CCC4(C)C3CCC2(C)[C@@]1(OC(C)=O)C(C)=O (stereo partly specified)		inactive: -3.61%
O=C(COC(=O)c1c(Cl)cccc1Cl)Nc1ccccc1Br	inconclusive: 14.1 µM [activator, single point]	
COC(=O)c1ccc(NC(=O)C(=O)NCC(c2cccnc2)N2CCc3ccccc32)cc1 (stereo unspecified)		inactive: -2.69%
O=S(=O)(Nc1ccc2c(c1)OCO2)c1ccc(Br)s1	inconclusive: 12.6 µM [activator, partial curve, poor fit]	
CCCn1cc(NC(=O)c2cc(-c3ccccc3)on2)cn1	inconclusive: 11.2 µM [activator, single point]	
O=C(NN1C(=O)/C(=C/c2ccc(O)c(O)c2)SC1=S)c1ccccc1	inconclusive: 17.8 µM [activator, full curve, poor fit]	
Cc1ccc(/C(N)=N/OC(=O)CSc2ccccc2)cc1	inconclusive: 5.01 µM [activator, partial curve, poor fit]	
CCc1ccc(S(=O)(=O)c2nnn3c2nc(NC2CCCC2)c2sccc23)cc1		inactive: 1.36%
N#CCCN1CCCc2cc(N=Nc3ccc(C(F)(F)F)cc3)ccc21	inconclusive: 11.2 µM [activator, partial curve, poor fit]	
Cc1cccc(Oc2c([N+](=O)[O-])c(=O)n(C)c3ccccc23)c1	inconclusive: 11.2 µM [activator, single point]	
O=c1[nH]c(-c2ccccn2)nc2sc(-c3ccccc3)cc12	inconclusive: 7.08 µM [activator, partial curve, poor fit]	
CC(=O)c1cccc(OCc2cc(C(=O)N(C)Cc3cnccn3)no2)c1	inconclusive: 12.6 µM [activator, single point]	
CC(C)(C)n1nnnc1C(c1ccncc1)N1CCN(C2CCCCC2)CC1 (stereo unspecified)		inactive: -3.04%
COc1ccc(N(CC(=O)Nc2ccc3c(c2)OCCO3)S(=O)(=O)c2c(C)nn(C)c2C)cc1		inactive: -0.985%
